Laboratory results from PubChem BioAssay (NCI).
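A five-concentration, 48-hour dose response in 96-well plates underlies each endpoint, interpolated linearly between surrounding concentrations. The concentration for 50% growth inhibition is given as GI50. TGI denotes the concentration required for complete inhibition of growth.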 Square brackets hold non-standard residues; d marks the D form. Peptide text beside a SMILES is read from it. * marks the point of attachment. ξ: configuration not given here. NMeF = CN[CH](Cc1ccccc1)C(=O)O; ξNMe2Val = CC(C)C(C(=O)*)N(C)C; NMeV = CN[CH](C(=O)O)C(C)C; OtBu = CC(C)(C)O*

Tested on: NCI-H322M lung
Assay: NCI tumour cell line growth inhibition, 48 h

Compound | TGI | GI50
N=C(CC(=O)Nc1ccccn1)c1ccccc1 | > 100 µM | –
CSc1nc(SC)c2c(C)cn(COCCOC(=O)c3ccccc3)c2n1 | > 100 µM | –
Cc1ccc(S(=O)(=O)C2CC2(Cl)Cl)cc1 (stereo not given) | > 100 µM | –
O=C(O)c1nn(-c2ccccc2)nc1-c1nn(-c2ccccc2)nc1C(=O)O | > 100 µM | –
Cc1ccnc(Nc2[nH]c(C(=O)c3ccc(Cl)cc3)c(N)c2C(=S)Nc2ccccc2)c1 | 51.7 µM | –
Brc1ccc(-c2cc3c(cc2C2SCCS2)OCO3)cc1 | > 100 µM | –
COc1ccc2c(c1)/c(=C/C#N)c1c3ccccc3[n+](C)n21 | 39.4 µM | –
CC(NNC(=O)c1ccncc1)c1cccc(C(F)(F)F)c1 (stereo not given) | > 100 µM | –
CC1=C(C(=O)Nc2ccc(Cl)c(Cl)c2)C(c2cccc(Cl)c2)NC(=S)N1 (stereo not given) | 37.3 µM | 12.3 µM
COc1cc(O)c(Cc2ccccc2O)c(O)c1C(=O)CCc1ccccc1 | 24.1 µM | –
CC(=O)OCC1OC(N=[N+]=[N-])C(OC(C)=O)C(OC(C)=O)C1OC1OC(COC(C)=O)C(OC(C)=O)C(OC(C)=O)C1OC(C)=O (stereo not given) | > 100 µM | –
CN1C(=O)C23CCCC2CC1(c1ccccc1)S3 (stereo not given) | > 100 µM | –
O=C(Oc1c(Cl)cc(Cl)cc1Cl)c1ccccc1Nc1ccnc(C(F)(F)F)c1 | 58.1 µM | 20.2 µM
O=C(CI)Nc1ccc(Br)cc1 | 36 µM | 18.1 µM
C=C(C)CCC1C=[N+]([O-])OC(C)(C)C1(C)C (stereo not given) | > 100 µM | –
S=C(SSC(=S)N1CCCCC1)N1CCCCC1 | > 100 µM | 15.3 µM
COc1cc2c[n+](C)c3c4cc(OC)c(OCc5ccccc5)cc4c(OCc4ccccc4)cc3c2cc1OC | 75.9 µM | –
COc1ccc(-c2cc(-c3ccc(Nc4ccnc5cc(Cl)ccc45)cc3)[nH]c(=O)c2C#N)cc1 | > 100 µM | –
O=c1[nH]cnc2c1cnn2Cc1cnnn1COCCO | > 100 µM | –
COc1ccc(-c2nnc3n(C)c4ccccc4n3c2=O)cc1 | > 100 µM | –

Compound | TGI | GI50
CCOC(=O)C1C(=O)CC(=O)C2CCCCC21 (stereo not given) | > 100 µM | –
CCO/C(O)=c1/s/c(=C(\C#N)c2nc3ccccc3[nH]2)n(-c2ccccc2)c1=N | > 100 µM | –
CSc1nc2c(c(=O)n1C)C(c1ccccc1)C1=C(N2)/C(=C/c2ccccc2)CCC1 (stereo not given) | > 100 µM | > 100 µM
COc1cc(C(=O)O[C@H](C(=O)NCCCCNC(=O)[C@@H](OC(=O)c2cc(OC)cc3c(C)cccc23)[C@]2(C)CO2)[C@]2(C)CO2)c2cccc(C)c2c1 | 1.44 µM | 0.458 µM
COc1ccc(C(=O)C(C(=O)C(=O)NCCCNC(=O)C(=O)C(C(=O)c2ccc(OC)cc2)c2ccc(OC)cc2)c2ccc(OC)cc2)cc1 (stereo not given) | > 100 µM | –
NC1=Nc2ccccc2Sc2cccc(F)c21 | > 100 µM | –
CSc1nc(NCc2ccccc2)c2cnn(COCCO)c2n1 | > 100 µM | –
CSc1nnc(C(C#N)C#N)nn1 | > 100 µM | –
NC(=S)N1N=C2c3ccccc3CCC[C@H]2[C@@H]1c1ccccc1 | 60.6 µM | –
CC/C=C\C[C@H]1C/C=C2/C(=O)C(Cl)=C[C@@H]2C/C=C\CCCC(=O)O1 | 2.87 µM | 0.683 µM
Cc1ccc(NC(=O)C2C3CCC(O3)C2C(=O)O)cc1 (stereo not given) | > 100 µM | –
O=C1c2cccnc2-c2nccc3c2c1nc1ccccc13 | 0.989 µM | –
COc1ccc(-c2[nH]ncc2Nc2cc(OC)c(OC)c(OC)c2)cc1 | > 100 µM | > 20.4 µM
COc1cc(-c2ccc[nH]2)[nH]c1/C=C1\N=C(C)C(CC(=O)OCC(C)(C)C)=C1C | 2.23 µM | 0.523 µM
COC(=O)C(CCC1(C)OCCO1)=[N+]=[N-] | > 100 µM | –
O=S(O)c1cc(Cl)c(O)c(Cl)c1 | > 100 µM | –
CCN(CC)c1c(C)nnn1C1OC(COC(C)=O)C(OC(C)=O)C(OC(C)=O)C1OC(C)=O (stereo not given) | > 100 µM | –
CCCN(CCC)C(=O)c1c(N2CCN(C)CC2)c2cccnc2n2c(C)cnc12 | > 100 µM | –
Oc1[nH]c2ccccc2c1C=Nc1ccc(-n2cncn2)cc1 | > 25 µM | > 25 µM
CC(C)C(C(=O)N(C)C(Cc1ccccc1)C(=O)N(C)C(C(=O)N(C)C(C(=O)N1CCCC1C(=O)OC(C)(C)C)C(C)C)C(C)C)N(C)C (stereo not given) (ξNMe2Val-[NMeF][NMeV][NMeV]P-OtBu; configuration not given here) | > 100 µM | –
